Lines with a small IC50 respond at low doses; fits outside the tested doses are given as limits. AUC, from the same fit, is the share of area under the viability curve across the 256-fold dose range; the more sensitive the line, the further below 1. The top dose, if marked as inferred, was derived from the fitted curves, not read from the paper. Drugs with an entry number were screened twice under separate entries, and the two screens often disagree.

Compound in one assay: NC(=O)[C@@H](CCC(F)(F)F)N(Cc1ccc(-c2ncon2)cc1F)S(=O)(=O)c1ccc(Cl)cc1 [BMS-708163]
The assay can be described thus: Viability of human cancer cell lines after 72 h of drug (GDSC screen). Particulars: screen: GDSC drug entry 205; top dose inferred. The protocol:
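Human cancer cell lines in 384-well plates, medium with 10% serum, drug for 72 h over a 256-fold dose range (nine 2-fold or five 4-fold steps up to the top dose). Adherent lines were fixed and stained with the nucleic acid dye Syto60, suspension lines read with resazurin; signal relative to control wells, capped at 0 and 100%. One two-parameter sigmoid per drug and line, fitted in a mixed model over all curves with the slope shared within a line.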
As to “RERF-LC-KJ (lung adenocarcinoma, adherent, top dose 10.24 µM)”, the AUC was 0.984 and the IC50 – broadly, the concentration at which inhibition is half-maximal – is more than 10.2 µM.
As for “RERF-LC-MS (lung adenocarcinoma, adherent, top dose 10.24 µM)”, the AUC is 0.987 and the IC50 is more than 10.2 µM.
Turning to “RERF-LC-Sq1 (lung squamous cell carcinoma, adherent, top dose 10.24 µM)”, the AUC amounted to 0.979 and the IC50 is more than 10.2 µM.
As for “RF-48 (stomach, adherent, top dose 10.24 µM)”, the AUC worked out at 0.981 and the IC50 is more than 10.2 µM.
Take “RH-1 (rhabdomyosarcoma, adherent, top dose 10.24 µM)”: the AUC was 0.992 and the IC50 was more than 10.2 µM.
As for “RH-41 (rhabdomyosarcoma, adherent, top dose 10.24 µM)”, the AUC was 0.986 and the IC50 was more than 10.2 µM.
Take “RKN (ovary, adherent, top dose 10.24 µM)”: the AUC stood at 0.981 and the IC50 was more than 10.2 µM.
Regarding “RKO (large intestine, adherent, top dose 2.56 µM)”, the AUC was 0.988 and the IC50 was more than 2.56 µM.
As for “RL95-2 (endometrium, adherent, top dose 10.24 µM)”, the AUC came to 0.987 and the IC50 was more than 10.2 µM.
Take “RL (B-cell lymphoma, suspension, top dose 10.24 µM)”: the AUC is 0.989 and the IC50 is more than 10.2 µM.
Regarding “RMG-I (ovary, adherent, top dose 10.24 µM)”, the AUC was 0.971 and the IC50 was more than 10.2 µM.
On to “RO82-W-1 (thyroid, adherent, top dose 10.24 µM)”, for which the AUC worked out at 0.981 and the IC50 is more than 10.2 µM.
“ROS-50 (B-cell leukaemia, suspension, top dose 10.24 µM)”: the AUC was determined as 0.984 and the IC50 is more than 10.2 µM.
In the case of “RPMI-2650 (head and neck, adherent, top dose 10.24 µM)”, the AUC was determined as 0.946 and the IC50 is more than 10.2 µM.
Turning to “RPMI-6666 (Hodgkin lymphoma, suspension, top dose 10.24 µM)”, the AUC stood at 0.943 and the IC50 was more than 10.2 µM.
In the case of “RPMI-7951 (melanoma, adherent, top dose 10.24 µM)”, the AUC worked out at 0.978 and the IC50 was more than 10.2 µM.
For the cell line “RPMI-8226 (myeloma, suspension, top dose 10.24 µM)”, the AUC was determined as 0.99 and the IC50 is more than 10.2 µM.
The matching figures for “RPMI-8402 (T-cell lymphoblastic leukaemia, suspension, top dose 2.56 µM)”: 0.917 and more than 2.56 µM.
The matching figures for “RPMI-8866 (chronic myeloid leukaemia, suspension, top dose 10.24 µM)”: 0.987 and more than 10.2 µM.
The like results for “RS4-11 (leukaemia, suspension, top dose 10.24 µM)” were, in that order, 0.986 and more than 10.2 µM.
In the case of “RT4 (bladder, adherent, top dose 10.24 µM)”, the AUC was 0.961 and the IC50 was more than 10.2 µM.
Consider “RT-112 (bladder, adherent, top dose 10.24 µM)”, for which the AUC is 0.985 and the IC50 is more than 10.2 µM.
The like results for “RVH-421 (melanoma, adherent, top dose 10.24 µM)” were, in that order, 0.966 and more than 10.2 µM.
Regarding “RXF393 (kidney, adherent, top dose 10.24 µM)”, the AUC turned out to be 0.973 and the half-maximal inhibitory concentration (IC50) was more than 10.2 µM.
The like results for “Raji (Burkitt lymphoma, suspension, top dose 10.24 µM)” were, in that order, 0.99 and more than 10.2 µM.

Still in this assay, the particulars now being: top dose 5 µM; screen: GDSC drug entry 1072; top dose inferred.
Take RH-18 (rhabdomyosarcoma, adherent): the AUC is 0.945 and the IC50 is more than 5 µM.

Values taken from the supplement of paper PMC4967469.
